In test [1] the target is FGFR3 kinase domain variant I538F (human) (UniProt P22607). In words: NMR titration; unlabelled Cdc37 added to 15N-labelled kinase domain (I538F 1:0.25, 1:0.5, 1:0.7; WT 1:0.7-1:3), 1H-15N TROSY-HSQC, 283-298 K; 50 mM PIPES-NaOH, 50 mM NaCl, 5 mM TCEP, 1 mM EDTA, pH 7.0; both purified.
Test [2] deals with wild-type FGFR3 kinase domain (human) (UniProt P22607). The description is as above.
The target of test [3] is Cdc37 phosphorylated on serine 13 (human) (UniProt Q16543). The experiment in a line: SEC; ternary mixture: 15 μM kinase, 15 μM Cdc37, 30 μM Hsp90α (1:1:2), 15 min at 4 °C; Superdex 200 Increase, 25 mM Tris.Cl, 150 mM NaCl, 1 mM TCEP, pH 8.0, 4 °C; fractions by SDS-PAGE and ELISA; both purified. For orientation: In gel filtration, larger molecules generally elute earlier.
The target in test [4] is Hsp90α (human) (UniProt P07900). Described as above.
Test [5] deals with Cdc37 phosphorylated on serine 13 (human) (UniProt Q16543). The experiment in a line: pull-down; 50 μg His-tagged Cdc37 immobilised on Talon resin; kinase added in 25 mM Tris.Cl, 150 mM NaCl, 1 mM TCEP, 0.1% Triton-X-100, pH 8.0, 4 °C, 1 h; Coomassie; both purified.
Test [6] has the same target. In words: HDX-MS; protein of interest 5 μM alone or with 7.5 μM partner, 30 min on ice, 25 mM Tris.Cl pH 8.0, 150 mM NaCl, 1 mM TCEP; exchange 0.3 s to 300 s; both purified.
Test [7] has the same target. In words: SEC; binary mixture: 15 μM kinase and 15 μM Cdc37 (1:1), 15 min at 4 °C; Superdex 200 Increase, 25 mM Tris.Cl, 150 mM NaCl, 1 mM TCEP, pH 8.0, 4 °C; both purified.
For test [8] the target is unchanged. The experiment in a line: SAXS; synchrotron SAXS of Cdc37, FGFR3 I538F and their complex (batch dilution series 3.8 to 1.0 mg/mL and SEC-SAXS); both purified.

Sequences of proteins named here, by UniProt entry; tags and fusion partners are left off. A change or cut given only in a name is not applied to a line headed by its entry. A line that says so, or that is headed by a name, gives the form on record, which may keep a tag or linker. Residues count along the entry.
wild-type FGFR3 kinase domain (P22607, residues 455-768): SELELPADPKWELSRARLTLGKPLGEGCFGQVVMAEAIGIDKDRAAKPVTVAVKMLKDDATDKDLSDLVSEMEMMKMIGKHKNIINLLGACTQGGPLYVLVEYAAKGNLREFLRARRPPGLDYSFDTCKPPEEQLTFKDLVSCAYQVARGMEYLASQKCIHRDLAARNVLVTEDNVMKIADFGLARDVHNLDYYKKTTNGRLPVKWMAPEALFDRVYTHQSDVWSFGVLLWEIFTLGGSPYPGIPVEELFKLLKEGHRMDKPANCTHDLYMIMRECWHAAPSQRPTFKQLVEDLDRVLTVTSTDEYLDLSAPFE
FGFR3 kinase domain variant I538F (P22607, form named): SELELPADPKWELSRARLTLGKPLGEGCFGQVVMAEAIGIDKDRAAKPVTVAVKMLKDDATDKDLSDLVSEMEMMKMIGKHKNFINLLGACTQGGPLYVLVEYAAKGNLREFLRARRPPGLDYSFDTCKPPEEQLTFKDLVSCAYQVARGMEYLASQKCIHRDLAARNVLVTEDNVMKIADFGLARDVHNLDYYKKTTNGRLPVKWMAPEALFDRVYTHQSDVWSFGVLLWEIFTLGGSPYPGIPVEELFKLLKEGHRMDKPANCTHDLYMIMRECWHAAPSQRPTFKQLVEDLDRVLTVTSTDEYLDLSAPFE
FGFR3 kinase domain variant E466K (P22607, form named): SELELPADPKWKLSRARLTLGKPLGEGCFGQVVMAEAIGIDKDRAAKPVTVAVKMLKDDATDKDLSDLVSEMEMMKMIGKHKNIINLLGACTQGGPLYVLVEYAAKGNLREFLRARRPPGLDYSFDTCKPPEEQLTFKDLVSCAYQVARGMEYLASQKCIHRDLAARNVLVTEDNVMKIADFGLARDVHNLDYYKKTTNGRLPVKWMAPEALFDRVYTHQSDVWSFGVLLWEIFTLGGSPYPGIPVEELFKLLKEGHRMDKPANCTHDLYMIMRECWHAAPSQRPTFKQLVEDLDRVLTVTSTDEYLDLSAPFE
FGFR3 kinase domain variant K650E (P22607, form named): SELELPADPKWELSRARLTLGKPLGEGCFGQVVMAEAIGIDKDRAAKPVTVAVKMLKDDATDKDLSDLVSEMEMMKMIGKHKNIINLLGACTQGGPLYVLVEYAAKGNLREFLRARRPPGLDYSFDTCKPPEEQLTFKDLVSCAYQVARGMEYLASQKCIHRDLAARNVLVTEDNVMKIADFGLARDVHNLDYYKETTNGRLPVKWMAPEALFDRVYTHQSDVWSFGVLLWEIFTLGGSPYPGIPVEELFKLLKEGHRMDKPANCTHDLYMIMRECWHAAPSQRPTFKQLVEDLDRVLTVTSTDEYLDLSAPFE
FGFR3 kinase domain variant N540K (P22607, form named): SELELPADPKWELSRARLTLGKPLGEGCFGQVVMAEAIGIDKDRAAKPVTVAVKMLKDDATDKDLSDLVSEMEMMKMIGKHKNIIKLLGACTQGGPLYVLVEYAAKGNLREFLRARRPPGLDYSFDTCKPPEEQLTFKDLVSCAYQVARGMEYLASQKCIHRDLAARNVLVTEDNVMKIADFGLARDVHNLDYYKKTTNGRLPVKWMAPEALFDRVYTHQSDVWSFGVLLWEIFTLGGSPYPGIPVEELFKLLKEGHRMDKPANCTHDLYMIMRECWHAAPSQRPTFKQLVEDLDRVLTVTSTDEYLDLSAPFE
UniProt Q16543: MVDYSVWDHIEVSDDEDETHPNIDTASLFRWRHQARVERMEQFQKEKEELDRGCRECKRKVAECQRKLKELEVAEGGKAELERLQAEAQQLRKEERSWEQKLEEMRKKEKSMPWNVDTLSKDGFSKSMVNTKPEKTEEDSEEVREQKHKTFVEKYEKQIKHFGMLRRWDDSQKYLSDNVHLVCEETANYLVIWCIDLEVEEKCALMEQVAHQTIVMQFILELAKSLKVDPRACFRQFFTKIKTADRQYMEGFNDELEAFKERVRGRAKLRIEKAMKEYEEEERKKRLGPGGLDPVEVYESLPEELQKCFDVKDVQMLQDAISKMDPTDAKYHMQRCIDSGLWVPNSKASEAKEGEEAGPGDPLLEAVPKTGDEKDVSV
UniProt P21802, residues 481-770: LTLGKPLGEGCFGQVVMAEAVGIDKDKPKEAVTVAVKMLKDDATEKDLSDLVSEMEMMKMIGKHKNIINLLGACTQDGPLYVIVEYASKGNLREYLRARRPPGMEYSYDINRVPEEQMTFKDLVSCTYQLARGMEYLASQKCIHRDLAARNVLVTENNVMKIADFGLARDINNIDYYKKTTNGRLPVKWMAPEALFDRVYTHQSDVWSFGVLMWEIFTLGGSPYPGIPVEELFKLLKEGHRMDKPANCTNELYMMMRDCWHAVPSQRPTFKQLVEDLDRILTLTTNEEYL
UniProt P22455, residues 467-755: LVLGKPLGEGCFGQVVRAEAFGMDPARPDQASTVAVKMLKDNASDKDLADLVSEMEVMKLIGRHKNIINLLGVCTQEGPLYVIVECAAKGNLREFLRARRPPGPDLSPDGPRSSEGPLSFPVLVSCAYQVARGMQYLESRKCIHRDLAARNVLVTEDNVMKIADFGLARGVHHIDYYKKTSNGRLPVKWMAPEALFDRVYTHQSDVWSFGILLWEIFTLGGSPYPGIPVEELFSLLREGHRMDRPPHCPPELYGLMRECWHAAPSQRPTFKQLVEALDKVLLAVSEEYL

No constants are given. Whether binding was seen depends on the method and setting. Some binding calls cover weakened binding; strength is not graded here.

Turning to “Cdc37 phosphorylated on serine 13 (from UniProt Q16543 1-378)”, the binding entry in test [1] was “binds”; in test [2], “binds weakly”.

On to “FGFR2 kinase domain (from UniProt P21802 481-770) (domain or fragment)”, for which the binding entry is “no binding (tested: 15 μM kinase, 15 μM Cdc37, 30 μM Hsp90α)” in test [3] and “no binding (tested: 15 μM kinase, 15 μM Cdc37, 30 μM Hsp90α)” in test [4].

“FGFR3 kinase domain variant E466K (from UniProt P22607 455-768) (domain or fragment)”: the binding result in test [3], in test [5], in test [6] and in test [7] was “binds” each time.

With “FGFR3 kinase domain variant I538F (from UniProt P22607 455-768) (domain or fragment)”, the binding result in test [3], in test [5], in test [8] and in test [6] was “binds” throughout.

With “FGFR3 kinase domain variant K650E (from UniProt P22607 455-768) (domain or fragment)”, the binding entry in test [5] was “binds weakly”.

On to “FGFR3 kinase domain variant N540K (from UniProt P22607 455-768) (domain or fragment)”, for which the binding entry in test [3] and in test [5] was “binds” in each case.

Consider “FGFR4 kinase domain (from UniProt P22455 467-755) (domain or fragment)”, for which the binding entry is recorded as “no binding (tested: 15 μM kinase, 15 μM Cdc37, 30 μM Hsp90α)” in test [3] and “no binding (tested: 15 μM kinase, 15 μM Cdc37, 30 μM Hsp90α)” in test [4].

Regarding “wild-type FGFR3 kinase domain (from UniProt P22607 455-768) (domain or fragment)”, the binding result in test [3], in test [5] and in test [6] was “binds weakly” in each case.
